{"source": "ChEMBL document CHEMBL4888484", "about": "“Replenishing the malaria drug discovery pipeline: Screening and hit evaluation of the MMV Hit Generation Library 1 (HGL1) against asexual blood stage Plasmodium falciparum ,using a nano luciferase reporter read-out” (2022)", "note": "The whole screen tested about 150,000 compounds, of which about 540 (0.36%) showed an effect of 50% or more. The list shows a part of the results."}
{"system": "Plasmodium falciparum", "test": "Primary screen in NF54 nanoGlo assay, in single point, at 2uM, 72h; a lower Z score goes with more inhibition", "type": "functional, Erythrocyte", "details": "timepoint 72 hour", "units": {"% Inhibition": "%"}}
{"smiles": "C#CCOc1ccc(CNC(C)(C)CO)cc1OCC", "% Inhibition": -2, "Z score": 0.36}
{"smiles": "C[C@H]1CCCCN1Cc1cc2ccc(Cl)cc2n(Cc2ccccn2)c1=O", "% Inhibition": -1, "Z score": 0.19}
{"smiles": "O=C(NCc1cccnc1)c1nc(C2CC2)nc2c1OCCO2", "% Inhibition": 11, "Z score": -1.46}
{"smiles": "Cc1ccc(F)c(S(=O)(=O)N2CCC=C(c3cnn(C)c3)C2)c1", "% Inhibition": 2, "Z score": -0.41}
{"smiles": "Cc1nc(C2CC(O)C2)cc(N2CC(N3CCCCC3)C2)n1", "note": "(configuration not stated)", "% Inhibition": 13, "Z score": -1.73}
{"smiles": "COCCC1(C(N)=O)CCN(C2CN(S(=O)(=O)c3cccc(Cl)c3)C2)CC1", "% Inhibition": -3, "Z score": 0.4}
{"smiles": "C[C@@H](C1CC1)N(C)C(=O)Cn1c(=O)n(C)c2ccccc21", "% Inhibition": -14, "Z score": 2.58}
{"smiles": "O=C(c1cc2cc(Cl)ccn2n1)N1CCC(n2nnc3c2CCCC3)CC1", "% Inhibition": 7, "Z score": -0.85}
{"smiles": "CC(C)(NC(=O)Nc1ccn(CC(F)(F)F)n1)C(=O)N1CCCC1", "% Inhibition": 1, "Z score": -0.17}
{"smiles": "Fc1ccc([C@@H]2Cn3nc(-c4nc(-c5ccccn5)no4)cc3CO2)cc1", "% Inhibition": 5, "Z score": -0.52}
{"smiles": "COc1ccc(C(=O)N2CCNC(=O)C2)cc1S(=O)(=O)N1CCN(c2cccc(Cl)c2)CC1", "% Inhibition": -13, "Z score": 2.13}
{"smiles": "Cc1nonc1CC(=O)N1CCC[C@H]1C(F)(F)F", "% Inhibition": -2, "Z score": 0.34}
{"smiles": "O=C(CCC1CCCC1)Nc1ccc(-c2nnc3n2CCCC3)cc1", "% Inhibition": -17, "Z score": 1.6}
{"smiles": "C[C@@]12CCCN1C(=O)[C@@H](c1ccccc1)NC2=O", "% Inhibition": -1, "Z score": 0.25}
{"smiles": "Nc1nc(N)nc(Cn2cccc(C(F)(F)F)c2=O)n1", "% Inhibition": -3, "Z score": 0.46}
{"smiles": "O=C1C[C@]2(NC(=O)c3cccc(Cl)c3Cl)CCCC[C@@H]2N1", "% Inhibition": 0, "Z score": 0.04}
{"smiles": "O=C(Cc1ccsc1)N1CC2(C[C@H](N3CCCCC3)CO2)C1", "% Inhibition": -7, "Z score": 1.1}
{"smiles": "CN1CCc2ccc(C(=O)NC3(C(=O)NCC4CC4)CCCC3)cc21", "% Inhibition": 3, "Z score": -0.28}
{"smiles": "COc1c(F)cc(F)cc1-c1ccc(C(=O)NC2CC2)cc1", "% Inhibition": -10, "Z score": 1.73}
{"smiles": "CCC[C@H]1CN(Cc2ccc3nsnc3c2)C[C@@H]1NS(C)(=O)=O", "% Inhibition": -8, "Z score": 1.06}
{"smiles": "CCCc1cc(C(=O)N(Cc2ccccn2)C[C@@H]2CCC(=O)N2)[nH]n1", "% Inhibition": -3, "Z score": 0.59}
{"smiles": "CC(C)N(CC(N)=O)S(=O)(=O)c1ccc(F)c(Cl)c1", "% Inhibition": 7, "Z score": -1.05}
{"smiles": "CCOC(=O)C1C2C(=O)N(c3ccc(Cl)cc3)C(=O)C12", "note": "(configuration not stated)", "% Inhibition": -2, "Z score": 0.31}
{"smiles": "C[C@H]1CN(Cc2ccn(CC(F)(F)F)n2)CCN(C2CCC2)C1", "% Inhibition": -13, "Z score": 2.42}
{"smiles": "Nc1c(-c2ccc(Cl)cc2)cnc2cc(-c3ccc(Cl)c(Cl)c3)nn12", "% Inhibition": -1, "Z score": 0.13}
{"smiles": "Cc1ccc(CNC2CCN(C)CC2)s1", "% Inhibition": -5, "Z score": 0.61}
{"smiles": "COC(=O)Nc1cccc(NC(=O)N2CC(OCc3cccc4ccccc34)C2)c1", "% Inhibition": 1, "Z score": -0.22}
{"smiles": "CC(C)(CCS(C)(=O)=O)Nc1ccc(C(F)(F)F)cn1", "% Inhibition": 2, "Z score": -0.33}
{"smiles": "C=CCN1CCC[C@H](Cn2cncn2)C1", "% Inhibition": -11, "Z score": 1.15}
{"smiles": "Nc1nn(-c2cc(C(=O)O)cc(S(=O)(=O)N3CCCCCC3)c2)c2ccccc12", "% Inhibition": -3, "Z score": 0.36}
{"smiles": "c1nc2nc3c(c(N4CCCCCCCC4)n2n1)CCCC3", "% Inhibition": 1, "Z score": -0.13}
{"smiles": "COc1ccc(OC)c(NC(=O)CN2CCc3[nH]c4ccc(F)cc4c(=O)c3C2)c1", "% Inhibition": 45, "Z score": -6.35}
{"smiles": "CN(C)c1nc(CN2CCC(CO)CC2)ns1", "% Inhibition": 33, "Z score": -4.18}
{"smiles": "CCN(C(=O)c1nc(C)ccc1Br)[C@H]1CCNC1=O", "% Inhibition": -10, "Z score": 1.6}
{"smiles": "COCCn1cnc2c(-c3ccccc3)cn(CC(=O)Nc3ccc(C)c(C)c3)c2c1=O", "% Inhibition": 12, "Z score": -1.77}
{"smiles": "OCc1cc(CC2(NCc3ccc4c(c3)OCO4)COC2)no1", "% Inhibition": 32, "Z score": -3.61}
{"smiles": "CCCCCOCC(=O)NCc1cncc(OC)c1", "% Inhibition": -7, "Z score": 0.99}
{"smiles": "O=S(=O)(Cc1c(Cl)cccc1Cl)NCc1ccco1", "% Inhibition": 3, "Z score": -0.26}
{"smiles": "CCOc1cccc2nnc(NC(=O)NCc3cccc(OC)c3)n12", "% Inhibition": -6, "Z score": 0.71}
{"smiles": "O[C@@H](CN1CCC2(CC1)OCCO2)c1ccc(F)cc1", "% Inhibition": 3, "Z score": -0.46}
{"smiles": "CCc1ccc(CCC(=O)N2CCC[C@@H]2Cn2ccnc2C)cc1", "% Inhibition": -9, "Z score": 1.24}
{"smiles": "COc1ccccc1-c1cc(C(F)(F)F)n2ncc(C(=O)O[C@H]3C[C@@H](C)CC[C@@H]3C(C)C)c2n1", "% Inhibition": -11, "Z score": 1.58}
{"smiles": "O=C(c1ccccc1-c1ccccc1)N1CCN(c2ncccn2)CC1", "% Inhibition": -7, "Z score": 0.94}
{"smiles": "CN(C)CCNC(=O)CCCOCCc1ccccc1", "% Inhibition": -12, "Z score": 1.35}
{"smiles": "Cc1ccc(NC(=O)Nc2cc(C)ccc2N2CCCN(Cc3ccc(F)c(F)c3)C2=O)cc1", "% Inhibition": 0, "Z score": 0.02}
{"smiles": "Cc1ccc(S(=O)(=O)Nc2[nH]nnc2C(=O)Nc2ccc(C)cc2C)cc1", "% Inhibition": 30, "Z score": -3.37}
{"smiles": "COC(=O)c1cc(OCC(=O)Nc2ccccc2C)c2cc(Cl)ccc2n1", "% Inhibition": -13, "Z score": 2.22}
{"smiles": "O=C(NC1CCOCC1)N1C2C=CCC1CC2", "note": "(configuration not stated)", "% Inhibition": -12, "Z score": 1.41}
{"smiles": "O=C(N[C@@H](CC1CC1)C(=O)O)c1cc(-c2ccccc2)ccc1Cl", "% Inhibition": -8, "Z score": 1.3}
{"smiles": "Cc1nc2ccc(-n3ncnc3[C@]3(C)CCCO3)cc2s1", "% Inhibition": -2, "Z score": 0.3}
{"smiles": "O=C(NS(=O)(=O)CC1CCCCC1)[C@H]1CC1(F)F", "% Inhibition": 4, "Z score": -0.62}
{"smiles": "COc1ccc(C(=O)N[C@@H]2CCC[C@@H]2C(=O)N2CCN(c3ccc(Cl)cc3)CC2)cn1", "% Inhibition": -14, "Z score": 1.84}
{"smiles": "CN(C(=O)[C@H]1CCC(=O)N(C2CCCC2)C1)C(C1CC1)C1CC1", "% Inhibition": -2, "Z score": 0.26}
{"smiles": "O=C(Cn1cnc2ccccc21)NCc1cccnc1-c1ccsc1", "% Inhibition": 1, "Z score": -0.16}
{"smiles": "COc1ccc(OC[C@@H](O)CN2CCC(O)CC2)c(CNCCn2cccn2)c1", "% Inhibition": 1, "Z score": -0.08}
{"smiles": "CCN(C[C@H](C)C#N)C(=O)CN(C)C1CCCCC1", "% Inhibition": -11, "Z score": 1.22}
{"smiles": "C[C@@H](CN(C)C(=O)c1ccc(Oc2ccccc2)o1)c1nnn[nH]1", "% Inhibition": 7, "Z score": -1}
{"smiles": "O=C(Nc1cccc2c1CCC2)[C@@H]1CN(C(CO)CO)CCO1", "% Inhibition": -4, "Z score": 0.75}
{"smiles": "CN1CCCC1=NS(=O)(=O)c1cccc(N)c1", "% Inhibition": -2, "Z score": 0.23}
{"smiles": "CCc1nnc(CN(C)C(=O)NC(C2CC2)C2CC2)o1", "% Inhibition": 10, "Z score": -1.31}
{"smiles": "COCCCNC(=O)c1cnn2c(-c3ccc(-c4ccccc4)cc3)ccnc12", "% Inhibition": 0, "Z score": 0.04}
{"smiles": "O=C(COc1ccc(-n2cccn2)nn1)Nc1cccnc1", "% Inhibition": -5, "Z score": 0.87}
{"smiles": "CNc1cc(C)nc(-c2cccc(C(=O)N3CCS(=O)(=O)CC3)c2)n1", "% Inhibition": 7, "Z score": -0.96}
{"smiles": "CC[C@H]1CN(c2ccc3nnnn3n2)CCO1", "% Inhibition": 0, "Z score": -0.04}
{"smiles": "CC(C)(CN1CCCCCC1)NC(=O)[C@H]1CC[C@@H](O)CC1", "% Inhibition": 5, "Z score": -0.94}
{"smiles": "CC(=O)NCc1ccc(-c2noc(-c3cccnc3)n2)s1", "% Inhibition": 0, "Z score": 0.01}
{"smiles": "COc1cc([C@H](C)NC(=O)c2c[nH]c(C(F)(F)F)c2)ccn1", "% Inhibition": -6, "Z score": 0.74}
{"smiles": "Cc1cc(N2CCCC2)nc(N2CCN(C(=O)CCC3CCCCC3)CC2)n1", "% Inhibition": -1, "Z score": 0.26}
{"smiles": "Cc1cccc2c(N3CCCC3)nc(CNS(=O)(=O)N(C)C)nc12", "% Inhibition": 0, "Z score": -0.01}
{"smiles": "CNC(=O)C1CCCN(C(=O)C2CCC=CO2)C1", "note": "(configuration not stated)", "% Inhibition": 4, "Z score": -0.79}
{"smiles": "COC(=O)[C@H](C)N(C(=O)CC1CCCCC1)c1c(C)cccc1C", "% Inhibition": -13, "Z score": 2.46}
{"smiles": "COc1ccc(NC(=O)C(=O)c2cccn2Cc2ccc(C)c(C)c2)cc1Cl", "% Inhibition": -9, "Z score": 1.08}
{"smiles": "CS(=O)(=O)c1ccc(NC(=O)c2nnn(-c3ccccc3)n2)cc1", "% Inhibition": -16, "Z score": 3.04}
{"smiles": "COC1(C(=O)Nc2ccn(-c3ccncc3)n2)CCCCC1", "% Inhibition": -12, "Z score": 1.53}
{"smiles": "CCCN(CC(=O)N(Cc1ccc(Cl)cc1)C1CCN(C(=O)NCC)CC1)S(=O)(=O)c1ccc(C)cc1", "% Inhibition": -16, "Z score": 2.17}
{"smiles": "CCNC(=O)N(C)c1cccc(NC(=O)N2C3CCC2CC2(CC2)C3)c1", "% Inhibition": 26, "Z score": -2.89}
{"smiles": "N#Cc1cnn(C(=O)[C@@H]2CCN(c3cc(F)cc(F)c3)C2=O)c1N", "% Inhibition": -1, "Z score": 0.22}
{"smiles": "CC[C@H]1CCN(Cc2ccc(C(F)(F)F)nc2)C1", "% Inhibition": -7, "Z score": 0.7}
{"smiles": "C[C@@H](C(=O)N1CCC2(CCc3ccccc3O2)CC1)n1cnc2c(N)ncnc21", "% Inhibition": 8, "Z score": -0.94}
{"smiles": "C=C(C)CN(C)CC(=O)Nc1ccc(F)cc1Cl", "% Inhibition": 0, "Z score": 0.05}
{"smiles": "O=S(=O)(NCC1(OCCO)CCCC1)c1ccc(-n2cccn2)cc1", "% Inhibition": 7, "Z score": -0.76}
{"smiles": "O=C(Nc1cc(F)c(F)c(F)c1)N1CCC(n2ccnn2)CC1", "% Inhibition": -7, "Z score": 0.67}
{"smiles": "Cc1ccnc2sc(C(=O)N3COCC3(C)C)c(C)c12", "% Inhibition": -9, "Z score": 1.13}
{"smiles": "CCOc1cc2c(cc1CN1Cc3[nH]cnc3C[C@H]1C(=O)O)CCC2", "% Inhibition": -3, "Z score": 0.54}
{"smiles": "O=C(NCCCOCC(F)(F)F)NC1CCCC2OCCC12", "note": "(configuration not stated)", "% Inhibition": -14, "Z score": 1.44}
{"smiles": "CC(C)(C)NS(=O)(=O)Cc1cccc(NCc2cccs2)c1", "% Inhibition": -8, "Z score": 1.12}
